Measured values published in PubChem BioAssay AID504332 (National Center for Advancing Translational Sciences (NCATS), 2011).
Screen size: about 350,000 compounds; about 31,000 (8.9%) were called active. This list was built around the results that the source calls inconclusive (neither active nor inactive); the mix of calls is not that of the screen. The call rests on the fitted dose curve; in most records, active means well fitted inhibition curve with a large enough effect; inconclusive means small, poorly fitted or top-dose-only effect; inactive means no such curve, though single readings can be large or run the other way. Where the call is inconclusive, the potency comes from a doubtful curve fit.

biological target: Histone-lysine N-methyltransferase EHMT2 (Homo sapiens) (UniProt Q96KQ7); experiment: qHTS Assay for Inhibitors of Histone Lysine Methyltransferase G9a; settings: G9a H3K9 monomethylation, AlphaScreen, 2 h; activity, negative = inhibition: at 59 µM (top of the series) unless noted; further: nearly all actives have a fitted effect of over 75% in size
Procedure, shortened: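 Signal arises when biotinylated H3K9 peptide, once monomethylated, bridges streptavidin donor and antibody-captured acceptor beads. Enzyme at 20 nM was preincubated 15 min with test compounds; peptide 500 nM and SAM 20 uM then reacted for 2 h.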
On the % scale 0 is the no-effect control and ±100 the full control effect; potency means the concentration at half of the fitted maximal effect; tags describe the fitted curve by direction and shape.

Chain of UniProt Q96KQ7 (Q96KQ7 whole entry, looked up): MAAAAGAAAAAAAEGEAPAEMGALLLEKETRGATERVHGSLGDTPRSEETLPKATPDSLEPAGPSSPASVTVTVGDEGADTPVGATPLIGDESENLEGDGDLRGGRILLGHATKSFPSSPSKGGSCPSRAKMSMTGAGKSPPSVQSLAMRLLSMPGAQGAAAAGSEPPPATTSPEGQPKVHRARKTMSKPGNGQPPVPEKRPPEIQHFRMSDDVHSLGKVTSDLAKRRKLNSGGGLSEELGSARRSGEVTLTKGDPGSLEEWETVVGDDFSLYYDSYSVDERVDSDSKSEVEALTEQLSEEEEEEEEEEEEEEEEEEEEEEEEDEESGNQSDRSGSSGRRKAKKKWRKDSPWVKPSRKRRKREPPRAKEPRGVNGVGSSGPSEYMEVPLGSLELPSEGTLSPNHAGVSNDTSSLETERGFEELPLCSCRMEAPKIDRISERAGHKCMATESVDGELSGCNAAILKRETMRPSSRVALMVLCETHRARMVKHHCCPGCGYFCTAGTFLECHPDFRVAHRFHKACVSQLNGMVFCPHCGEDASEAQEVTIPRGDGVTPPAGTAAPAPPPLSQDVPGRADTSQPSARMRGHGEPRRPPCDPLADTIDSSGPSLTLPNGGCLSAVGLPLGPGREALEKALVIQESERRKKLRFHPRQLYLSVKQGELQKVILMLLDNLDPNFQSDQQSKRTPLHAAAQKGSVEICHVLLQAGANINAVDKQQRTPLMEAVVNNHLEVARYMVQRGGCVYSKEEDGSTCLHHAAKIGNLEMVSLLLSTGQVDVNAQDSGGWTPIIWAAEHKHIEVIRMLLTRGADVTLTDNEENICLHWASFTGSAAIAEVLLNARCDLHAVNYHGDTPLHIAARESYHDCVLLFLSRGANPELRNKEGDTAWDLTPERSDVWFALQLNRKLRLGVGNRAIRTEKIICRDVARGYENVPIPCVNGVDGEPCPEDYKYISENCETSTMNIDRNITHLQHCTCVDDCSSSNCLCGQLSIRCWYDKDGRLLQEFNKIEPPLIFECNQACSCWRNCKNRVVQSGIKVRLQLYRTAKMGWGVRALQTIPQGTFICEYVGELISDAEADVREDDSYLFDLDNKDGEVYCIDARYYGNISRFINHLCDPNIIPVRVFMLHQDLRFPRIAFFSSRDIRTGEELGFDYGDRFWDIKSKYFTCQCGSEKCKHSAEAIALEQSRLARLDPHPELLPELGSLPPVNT

Row | SMILES | activity, negative = inhibition | Potency
1 | COc1ccc(Cl)cc1NS(=O)(=O)c1cccc(C(=O)NCC2(N(C)C)CCCCC2)c1 | inactive: -0.0506% [at 0.501 µM] | –
2 | COc1ccc(N(CC(=O)Nc2ccccc2C(N)=O)S(=O)(=O)c2ccc(C)c([N+](=O)[O-])c2)cc1 | – | inconclusive: 44.7 µM [inhibitor, single point]
3 | COCC(C)n1c(C)cc(C(=O)COC(=O)c2ccc3ncsc3c2)c1C (stereo not drawn) | – | inconclusive: 39.8 µM [inhibitor, single point]
4 | COc1cc(/C=C2/SC(=S)N(Cc3ccccc3)C2=O)ccc1O | – | active: 44.7 µM
5 | CC(C)C(c1nnnn1C1CCCC1)N1CCc2ccccc21 (stereo not drawn) | – | inconclusive: 1.58 µM [inhibitor, full curve, poor fit]
6 | COc1ccc(C(c2nnnn2Cc2cccs2)N2CCN(c3ccccc3F)CC2)cc1OC (stereo not drawn) | – | active: 39.8 µM
7 | CCOC(=O)/C(=C\c1ccccc1)C(=O)c1cc(C(C)=O)c(Nc2ccccc2)s1 | – | inconclusive: 89.1 µM [inhibitor, single point]
8 | O=[N+]([O-])c1cccc(-c2nc(NCc3ccccc3)c3ccccc3n2)c1 | – | inconclusive: 89.1 µM [inhibitor, single point]
9 | Cc1ccccc1C(=O)NCCN=C1NS(=O)(=O)c2ccccc21 | inactive: -41.3% [at 102 µM] | –
10 | Brc1ccc(CN2CCc3nc(Nc4ccccc4)ncc3C2)s1 | – | inconclusive: 20 µM [inhibitor, single point]
11 | O=C(c1ccc2c(c1)N(Cc1ccccc1F)C(=O)c1ccccc1S2=O)N1CCC(Cc2ccccc2)CC1 (stereo not drawn) | inactive: -42.2% | –
12 | Oc1ccc(/C=N/Nc2cccc3cccnc23)c(O)c1 | – | active: 5.62 µM
13 | CCCC(=O)Nc1ccc(Cc2ccc(NC(=O)CCC)c(C(=O)O)c2)cc1C(=O)O | – | inconclusive: 0.501 µM [inhibitor, full curve, poor fit]
14 | COc1cc2cc(C(=O)Nc3ccc4c(c3)OCCO4)[nH]c2cc1OC | – | inconclusive: 56.2 µM [inhibitor, partial curve, poor fit]
15 | COc1cccc(C2CC(c3cccc(Br)c3)n3nc(N)nc3N2)c1 (stereo not drawn) | – | inconclusive: 31.6 µM [inhibitor, partial curve, poor fit]
16 | CC(C(=O)NCc1cccc(Br)c1)n1ncn2cccc2c1=O (stereo not drawn) | inactive: -44.6% | –
17 | COc1ccc(/C=C/C(=O)NC(=S)Nc2ccc(S(=O)(=O)Nc3ccc(OC)nn3)cc2)cc1 | – | inconclusive: 3.55 µM [inhibitor, full curve]
18 | Brc1ccc2nc3c(n2c1)CCCC3 | – | inconclusive: 22.4 µM [inhibitor, partial curve]
19 | CS/C(=C/[N+](=O)[O-])Nc1cccc2c1C(C)CC2(C)C (stereo not drawn) | – | inconclusive: 70.8 µM [inhibitor, partial curve]
20 | COC(=O)CCCC1=CC2=CC(=O)C(C)(OC(=O)c3cccs3)C(=O)C2=CN1c1ccc(OC)cc1 (stereo not drawn) | inactive: -5.9% | –
21 | CC(=O)N1CCN(c2ccc(NC(=O)c3cccc(OCc4ccccc4)c3)cc2)CC1 | inconclusive: -51.7% [inhibitor] [at 12.7 µM] | –
22 | CC(C)(C)C1CCC(OC(=O)CN2CCCCC2)CC1 (stereo not drawn) | – | inconclusive: 89.1 µM [inhibitor, single point]

Row | SMILES | activity, negative = inhibition | Potency
23 | COc1ccc(N2CCN(C(=O)c3cn(C)c4ccc(S(=O)(=O)N(C)C5CCCCC5)cc4c3=O)CC2)cc1 | – | inconclusive: 7.08 µM [inhibitor, partial curve, poor fit]
24 | COc1cc2ccccc2cc1C(=O)Nc1cccc(-c2nc3ccccc3o2)c1 | inactive: -49.4% | –
25 | Cc1ccccc1OCC(=O)Nc1ccc(N2CCN(C(=O)c3ccco3)CC2)cc1 | – | inconclusive: 89.1 µM [inhibitor, single point]
26 | Nc1nn(-c2ccccc2)nc1C(=O)OCc1ccccc1Br | inactive: 82.7% | –
27 | Cc1ccc(NC(=O)c2cc(CN3CCOCC3)on2)cc1Cl | inactive: 0.747% | –
28 | COc1cc(/C=N/S(=O)(=O)c2ccccc2)cc(OC)c1O | – | inconclusive: 17.8 µM [inhibitor, single point]
29 | CCc1nnc(NC(=O)C2CC(=O)N(c3ccc(C)cc3)C2)s1 (stereo not drawn) | – | inconclusive: 3.16 µM [inhibitor, partial curve, poor fit]
30 | COc1cccc(C(C(=O)NC2CCCCC2)N(C(=O)c2cccs2)c2ccc3c(c2)OCO3)c1 (stereo not drawn) | inactive: -2.05% [at 102 µM] | –
31 | COc1ccccc1N1C[C@@H]2C[C@@H](c3ccco3)N3CCC[C@@]23C1=O | – | inconclusive: 79.4 µM [inhibitor, single point]
32 | COc1ccc(-c2csc(=Nc3ccccc3)n2CCO)cc1 | – | active: 39.8 µM
33 | O=C(NCC(c1ccco1)N1CCN(c2ccc(F)cc2)CC1)c1cccs1 (stereo not drawn) | – | inconclusive: 79.4 µM [inhibitor, single point]
34 | CN(C)Cc1ccccc1C1(O)c2ccccc2CSc2ccccc21 (stereo not drawn) | – | inconclusive: 89.1 µM [inhibitor, single point]
35 | O=C(c1ccc(N2CCOCC2)c([N+](=O)[O-])c1)N1CCCCC1 | inactive: 8.4% [at 102 µM] | –
36 | Cc1ccc(-c2nc(C)sc2CC(=O)NCc2ccco2)cc1 | – | inconclusive: 22.4 µM [inhibitor, single point]
37 | Cc1ccc(-c2cc(C(=O)Nc3nn[nH]n3)c3ccccc3n2)c(C)c1 | – | inconclusive: 5.62 µM [inhibitor, full curve, poor fit]
38 | CCc1c(C)sc(NC(=O)c2cc(C)no2)c1C#N | – | active: 12.6 µM
39 | O=C(c1ccccc1)C1CCN(CC(=O)N2CCN(c3ccccc3)CC2)CC1 | – | inconclusive: 89.1 µM [inhibitor, single point]
40 | Cc1cc(NC(=O)c2cc([N+](=O)[O-])cc([N+](=O)[O-])c2)no1 | inactive: -27.9% [at 102 µM] | –
41 | COc1ccc(-c2c3c(=O)n(C)c(=O)n(C)c3cn2-c2ccccc2)cc1 | – | inconclusive: 3.55 µM [inhibitor, single point]
42 | O=C(OC[C@@H]1O[C@@](O)(COC(=O)c2cccnc2)[C@H](OC(=O)c2cccnc2)[C@H]1OC(=O)c1cccnc1)c1cccnc1 | – | inconclusive: 6.31 µM [inhibitor, single point]
43 | CCN(CCCNC(=O)c1cn(CC)c2ccc(S(=O)(=O)N(C)C)cc2c1=O)c1cccc(C)c1 | – | active: 35.5 µM
